Assay results: the BET-seq Pho4 binding data (Le et al. 2018)
The list shows a part of the results. Values were computed here from the reads of four pooled replicates and scatter widely.

target: T1, Pho4 (S. cerevisiae) (UniProt P07270); assay: relative binding free energy (BET-seq); higher = weaker binding; details: reference: library average
T1 sequence: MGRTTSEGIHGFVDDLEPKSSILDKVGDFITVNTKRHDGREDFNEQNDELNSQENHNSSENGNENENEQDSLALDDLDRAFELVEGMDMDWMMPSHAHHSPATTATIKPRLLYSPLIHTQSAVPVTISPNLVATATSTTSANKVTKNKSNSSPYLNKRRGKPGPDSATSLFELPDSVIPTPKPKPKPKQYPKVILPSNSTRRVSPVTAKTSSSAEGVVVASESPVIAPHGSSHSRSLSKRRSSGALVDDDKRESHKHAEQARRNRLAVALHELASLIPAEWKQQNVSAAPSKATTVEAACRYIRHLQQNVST

Row | Sequence | relative binding free energy [kcal/mol]
1 | GAGGACACGTGTGGAT | 0.12
2 | TTGAACACGTGTTGCT | 0.1
3 | AATCGCACGTGCGGGT | -0.05
4 | AAGATCACGTGTGTTA | 0.11
5 | ATAAGCACGTGTGGTG | 0.02
6 | TGCGTCACGTGATGAT | 0.11
7 | AGCGGCACGTGGTTTA | -0.22
8 | TAGTTCACGTGATTTC | 0.4
9 | ATTTACACGTGTTCGG | 0.14
10 | TGGGGCACGTGTCTTG | -0.15
11 | ATGCTCACGTGTTTTT | 0.03
12 | TTATACACGTGTGTAA | -0.05
13 | CAGGTCACGTGTGTAG | 0.15
14 | GTCTACACGTGTTAGG | 0.23
15 | CATTACACGTGTAGGG | 0.17
16 | GTATGCACGTGTATTA | -0.09
17 | GAGTTCACGTGGAATG | 0.49
18 | TGAGTCACGTGGGGAG | 0
19 | TCTAGCACGTGTAATT | 0.18
20 | AGGGGCACGTGCAGCG | -0.2
21 | TTTTACACGTGGCCGG | -0.03
22 | GCACTCACGTGGGGGT | 0.08
23 | AATCGCACGTGTTTGT | -0.06
24 | TTTTGCACGTGGAGGA | 0.01
25 | TAAGGCACGTGCGGTA | -0.28

Row | Sequence | relative binding free energy [kcal/mol]
26 | TCGGACACGTGTGGGG | 0.21
27 | TCCTGCACGTGTGTAG | 0.11
28 | ACAGGCACGTGAGTTG | 0.09
29 | TTGAACACGTGGGATT | -0.01
30 | ATGAGCACGTGGAGGA | 0.02
31 | GCTGTCACGTGGGTGG | 0.07
32 | GTTGGCACGTGATATG | -0.01
33 | TGGAACACGTGATGTA | 0.16
34 | CGGGTCACGTGTTTGG | 0.11
35 | TGGGGCACGTGTTTGC | -0.09
36 | TTTTACACGTGTAGGT | 0.15
37 | TCGATCACGTGTGTTA | 0.23
38 | TAGTACACGTGAGTAG | 0.28
39 | TGTGGCACGTGCTAGA | -0.19
40 | TCGTACACGTGTCGTT | 0.19
41 | AGTTTCACGTGTATTG | 0.14
42 | TTAAGCACGTGGGCCG | -0.19
43 | GAGGGCACGTGAAATG | 0.26
44 | ATACTCACGTGAGTTT | 0.29
45 | AAGTGCACGTGCGGGG | -0.09
46 | TTGGGCACGTGACAGT | 0.04
47 | GGCTACACGTGTATGG | 0.08
48 | TGGCGCACGTGGTGTG | -0.3
49 | CTAGGCACGTGTGTAA | -0.09
50 | CTGGTCACGTGGTGGG | 0.14

Row | Sequence | relative binding free energy [kcal/mol]
51 | TGAGGCACGTGATGTC | -0.02
52 | CTGGGCACGTGAGTAG | 0.12
53 | CGGGTCACGTGTAATG | 0.2
54 | AGGAGCACGTGAGCTG | 0.25
55 | TGTTGCACGTGATTCG | 0.2
56 | ATTTGCACGTGGGCGT | -0.06
57 | GGATTCACGTGAAAGT | 0.53
58 | GGATACACGTGGGATT | 0.1
59 | AGTTTCACGTGTAAAA | 0.15
60 | TGCGTCACGTGAATTG | 0.24
61 | TTATACACGTGGGACT | -0.07
62 | GGATTCACGTGGGGGT | 0.24
63 | ATTTGCACGTGTATGC | -0.08
64 | GAGTTCACGTGTAATG | 0.39
65 | AGGTTCACGTGGGGAG | 0.21
66 | GGGAGCACGTGAGGCG | 0.05
67 | TCTTACACGTGGTGGG | 0.07
68 | GTGTTCACGTGGGGTA | 0.16
69 | TGAGACACGTGGGGCC | 0.04
70 | AATTGCACGTGTAGTG | -0.02
71 | TATGTCACGTGATTGT | 0.23
72 | GTAGGCACGTGCAGGA | -0.14
73 | AGTCTCACGTGAAGTT | 0.45
74 | GTTGCCACGTGCTGGT | 0.01
75 | GCGGGCACGTGTGTGC | -0.08

Row | Sequence | relative binding free energy [kcal/mol]
76 | GGGGACACGTGGAAAG | 0.23
77 | GAGGTCACGTGGCATA | 0.14
78 | GTGTACACGTGGAGAA | 0.12
79 | TACGTCACGTGTGGTA | 0.06
80 | AATTACACGTGAATTG | 0.24
81 | TTTTTCACGTGAATGA | 0.34
82 | AACTACACGTGTGGTG | 0.06
83 | GAGTACACGTGTGTCG | 0.21
84 | TTGATCACGTGCGTAG | 0.08
85 | AGGTACACGTGGGTTC | 0.09
86 | GGCAGCACGTGAAGGT | 0.07
87 | TTTCGCACGTGCGTAG | -0.04
88 | GGGGACACGTGATTCT | 0.18
89 | GGATGCACGTGGGGTG | -0.17
90 | GGGCTCACGTGTATAT | 0.36
91 | TTGGGCACGTGGACAG | -0.14
92 | ATGGGCACGTGCGGCT | -0.13
93 | GGACGCACGTGGAATG | 0.09
94 | TTAATCACGTGGCTGG | 0.07
95 | TTAGTCACGTGGTTCG | -0.02
96 | GTTGACACGTGAGGCT | 0.23
97 | GGTTGCACGTGAAGCT | 0.13
98 | AGAATCACGTGTGTTT | 0.15
99 | CTCTACACGTGGGGTT | -0.02
100 | GTGGCCACGTGAGAGT | 0.16

Row | Sequence | relative binding free energy [kcal/mol]
101 | TTAAGCACGTGACTTG | 0.04
102 | TGAGGCACGTGGACTT | 0.04
103 | ATGGTCACGTGGTGAA | -0.04
104 | ATGCACACGTGGATGG | 0.07
105 | TTGGGCACGTGCTTGT | -0.14
106 | GGCGGCACGTGTGAGC | 0
107 | GGTGCCACGTGGCCTG | 0.05
108 | TTTGCCACGTGGGTGG | -0.14
109 | TGTACCACGTGTGCGG | -0.03
110 | ATATACACGTGAATGG | 0.19
111 | ACGGACACGTGGGGCG | -0.16
112 | TGATGCACGTGAGTTG | 0.27
113 | CGATACACGTGTGATG | 0.19
114 | GTGTTCACGTGATCAT | 0.29
115 | TCATTCACGTGGGGGG | 0.24
116 | TATTGCACGTGTTATA | -0.07
117 | CGTGTCACGTGGAGGT | 0.08
118 | AGTAGCACGTGAGTTG | 0.12
119 | ATGCTCACGTGTGCTT | 0.15
120 | GGATGCACGTGCTGTT | -0.02
121 | GGGACCACGTGGGCGG | -0.11
122 | ACGTACACGTGTGTAT | 0.13
123 | TGTGTCACGTGATATT | 0.27
124 | TGGACCACGTGGGAGA | -0.03
125 | AGGTTCACGTGGTGCG | 0.3

Row | Sequence | relative binding free energy [kcal/mol]
126 | ATTATCACGTGTACTG | 0.09
127 | TAGGTCACGTGTAAAG | 0.25
128 | GGGATCACGTGGGTGA | 0.08
129 | TTTGTCACGTGCTAGG | 0
130 | GAAGGCACGTGAGTAT | 0.18
131 | ACTTGCACGTGTTGAG | 0.01
132 | GCGGTCACGTGCGTGC | 0.15
133 | CTAGGCACGTGGCGGT | -0.15
134 | GGGTGCACGTGTACGT | 0.04
135 | GGGCGCACGTGGCTTG | -0.05
136 | AGTTGCACGTGAGGAG | 0.17
137 | GGATACACGTGTGTGG | 0.11
138 | GTGTCCACGTGAGGTT | 0.3
139 | TTCCACACGTGGGGTG | -0.09
140 | GCGAGCACGTGTCGGT | 0
141 | ATGCACACGTGTGGTA | 0.06
142 | GATAGCACGTGGGCTT | -0.1
143 | GAGTGCACGTGGCTGG | -0.1
144 | TTGTGCACGTGGTAAG | 0.01
145 | CCTGGCACGTGGAGGT | -0.16
146 | GTCATCACGTGTATGG | 0.23
